# In the supplement of paper PMC8728848:
# Some of the results follow.
# B1: Arath Fbox LD (Arabidopsis thaliana) (protein)
# chain: EFSVWLEKASGKRCLMLSAMNLSIIWGDNPQYWQWIPIPESRFEKVAKLRDVCWFEIRGRTNTRVLSPRTRYSAYIVFKGVDKCYGFQNVAIEAAVGVVGQEPSRRLICFSEAIRRGRRNVVKPKQREDGWMEIELGEFFNDGGIMDNDEIEMSALETKQLNRKCGLIIQGIEIRPAKILAAASFLEQKLISEEDLNSAVDHHHHHH
# Key:
# Assay in all cases: glycan array binding signal (z-score within array); higher = stronger binding
# Conditions in all cases: glycan notation: IUPAC condensed, linker removed
# [1] = target: Neu5Ac(a2-6)Gal(b1-4)GlcNAc(b1-2)Man(a1-3)[Man(a1-6)]Man(b1-4)GlcNAc(b1-4)GlcNAc
# How it was run: (§1)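 Glycan array data were curated from 3228 arrays in the Consortium for Functional Glycomics database and kept only where the protein sequence was available. Glycan names were converted to IUPAC-condensed notation, and columns mapping to the same glycan were averaged. The binding signal is a within-array Z-score, averaged across arrays of the same protein sequence at different concentrations or buffers and across linkers. Negative Z-scores can be read as non-binding.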
# [2] = target: Neu5Ac(a2-6)Gal(b1-4)GlcNAc(b1-2)Man(a1-3)[Neu5Ac(a2-3)Gal(b1-4)GlcNAc(b1-2)Man(a1-6)]Man(b1-4)GlcNAc(b1-4)GlcNAc
# How it was run: as §1
# [3] = target: Neu5Ac(a2-6)Gal(b1-4)GlcNAc(b1-2)Man(a1-3)[Neu5Ac(a2-6)Gal(b1-4)GlcNAc(b1-2)Man(a1-6)]Man(b1-4)GlcNAc(b1-4)GlcNAc
# How it was run: as §1
# [4] = target: Neu5Ac(a2-6)Gal(b1-4)GlcNAc(b1-2)Man(a1-3)[Neu5Ac(a2-6)Gal(b1-4)GlcNAc(b1-2)Man(a1-6)]Man(b1-4)GlcNAc(b1-4)[Fuc(a1-6)]GlcNAc
# How it was run: as §1
# [5] = target: Neu5Ac(a2-6)Gal(b1-4)GlcNAc(b1-2)Man(a1-6)Man(b1-4)GlcNAc(b1-4)GlcNAc
# How it was run: as §1
# [6] = target: Neu5Ac(a2-6)Gal(b1-4)GlcNAc(b1-2)Man(a1-6)[Gal(b1-4)GlcNAc(b1-2)Man(a1-3)]Man(b1-4)GlcNAc(b1-4)GlcNAc
# How it was run: as §1
# [7] = target: Neu5Ac(a2-6)Gal(b1-4)GlcNAc(b1-2)Man(a1-6)[GlcNAc(b1-2)Man(a1-3)]Man(b1-4)GlcNAc(b1-4)GlcNAc
# How it was run: as §1
# [8] = target: Neu5Ac(a2-6)Gal(b1-4)GlcNAc(b1-2)Man(a1-6)[Man(a1-3)]Man(b1-4)GlcNAc(b1-4)GlcNAc
# How it was run: as §1
# [9] = target: Neu5Ac(a2-6)Gal(b1-4)GlcNAc(b1-2)[Neu5Ac(a2-6)Gal(b1-4)GlcNAc(b1-4)]Man(a1-3)[GlcNAc(b1-4)][Neu5Ac(a2-6)Gal(b1-4)GlcNAc(b1-2)[Neu5Ac(a2-6)Gal(b1-4)GlcNAc(b1-6)]Man(a1-6)]Man(b1-4)GlcNAc(b1-4)GlcNAc
# How it was run: as §1
# [10] = target: Neu5Ac(a2-6)Gal(b1-4)GlcNAc(b1-2)[Neu5Ac(a2-6)Gal(b1-4)GlcNAc(b1-4)]Man(a1-3)[GlcNAc(b1-4)][Neu5Ac(a2-6)Gal(b1-4)GlcNAc(b1-4)Man(a1-6)]Man(b1-4)GlcNAc(b1-4)GlcNAc
# How it was run: as §1
# [11] = target: Neu5Ac(a2-6)Gal(b1-4)GlcNAc(b1-2)[Neu5Ac(a2-6)Gal(b1-4)GlcNAc(b1-6)]Man(a1-6)[Neu5Ac(a2-6)Gal(b1-4)GlcNAc(b1-2)Man(a1-3)][GlcNAc(b1-4)]Man(b1-4)GlcNAc(b1-4)GlcNAc
# How it was run: as §1
# [12] = target: Neu5Ac(a2-6)Gal(b1-4)GlcNAc(b1-3)Gal(b1-3)GlcNAc
# How it was run: as §1
# [13] = target: Neu5Ac(a2-6)Gal(b1-4)GlcNAc(b1-3)Gal(b1-4)GlcNAc
# How it was run: as §1
# [14] = target: Neu5Ac(a2-6)Gal(b1-4)GlcNAc(b1-3)Gal(b1-4)GlcNAc(b1-2)Man(a1-3)[Neu5Ac(a2-6)Gal(b1-4)GlcNAc(b1-3)Gal(b1-4)GlcNAc(b1-2)Man(a1-6)]GalNAc
# How it was run: as §1
# [15] = target: Neu5Ac(a2-6)Gal(b1-4)GlcNAc(b1-3)Gal(b1-4)GlcNAc(b1-3)Gal(b1-4)GlcNAc
# How it was run: as §1
# [16] = target: Neu5Ac(a2-6)Gal(b1-4)GlcNAc(b1-3)Gal(b1-4)GlcNAc(b1-3)Gal(b1-4)GlcNAc(b1-2)Man(a1-3)[Neu5Ac(a2-6)Gal(b1-4)GlcNAc(b1-3)Gal(b1-4)GlcNAc(b1-3)Gal(b1-4)GlcNAc(b1-2)Man(a1-6)]GalNAc
# How it was run: as §1
# [17] = target: Neu5Ac(a2-6)Gal(b1-4)GlcNAc(b1-3)Gal(b1-4)GlcNAc(b1-3)GalNAc
# How it was run: as §1
# [18] = target: Neu5Ac(a2-6)Gal(b1-4)GlcNAc(b1-3)Gal(b1-4)GlcNAc(b1-3)[Neu5Ac(a2-6)Gal(b1-4)GlcNAc(b1-3)Gal(b1-4)GlcNAc(b1-6)]GalNAc
# How it was run: as §1
# [19] = target: Neu5Ac(a2-6)Gal(b1-4)GlcNAc(b1-3)Gal(b1-4)GlcNAc(b1-6)[Gal(b1-3)]GalNAc
# How it was run: as §1
# [20] = target: Neu5Ac(a2-6)Gal(b1-4)GlcNAc(b1-3)Gal(b1-4)[Fuc(a1-3)]GlcNAc(b1-3)Gal(b1-4)[Fuc(a1-3)]GlcNAc
# How it was run: as §1
# [21] = target: Neu5Ac(a2-6)Gal(b1-4)GlcNAc(b1-3)GalNAc
# How it was run: as §1
# [22] = target: Neu5Ac(a2-6)Gal(b1-4)GlcNAc(b1-3)[Neu5Ac(a2-6)Gal(b1-4)GlcNAc(b1-6)]GalNAc
# How it was run: as §1
# [23] = target: Neu5Ac(a2-6)Gal(b1-4)GlcNAc(b1-6)GalNAc
# How it was run: as §1
# [24] = target: Neu5Ac(a2-6)Gal(b1-4)GlcNAc(b1-6)[Gal(b1-3)GlcNAc(b1-3)]Gal(b1-4)Glc
# How it was run: as §1
# [25] = target: Neu5Ac(a2-6)Gal(b1-4)GlcNAc(b1-6)[Gal(b1-3)]GalNAc
# How it was run: as §1
# [26] = target: Neu5Ac(a2-6)Gal(b1-4)GlcNAc6S
# How it was run: as §1
# Neu5Ac(a2-6)GalNAc = target: Neu5Ac(a2-6)GalNAc
# How it was run: as §1
# [27] = target: Neu5Ac(a2-6)GalNAc(b1-4)GlcNAc
# How it was run: as §1
# [28] = target: Neu5Ac(a2-6)GalNAc(b1-4)GlcNAc6S
# How it was run: as §1
# [29] = target: Neu5Ac(a2-6)GlcNAc(b1-4)GlcNAc
# How it was run: as §1
# [30] = target: Neu5Ac(a2-6)GlcNAc(b1-4)GlcNAc(b1-4)GlcNAc
# How it was run: as §1
binder,measurement,setting,value
B1,glycan array binding signal (z-score),[1],-0.11
same,glycan array binding signal (z-score),[2],-0.541
same,glycan array binding signal (z-score),[3],-0.342
same,glycan array binding signal (z-score),[4],-0.55
same,glycan array binding signal (z-score),[5],-0.541
same,glycan array binding signal (z-score),[6],0.038
same,glycan array binding signal (z-score),[7],-0.555
same,glycan array binding signal (z-score),[8],-0.359
same,glycan array binding signal (z-score),[9],0.464
same,glycan array binding signal (z-score),[10],0.245
same,glycan array binding signal (z-score),[11],0.015
same,glycan array binding signal (z-score),[12],-0.356
same,glycan array binding signal (z-score),[13],0.147
same,glycan array binding signal (z-score),[14],-0.579
same,glycan array binding signal (z-score),[15],-0.407
same,glycan array binding signal (z-score),[16],-0.311
same,glycan array binding signal (z-score),[17],-0.344
same,glycan array binding signal (z-score),[18],-0.503
same,glycan array binding signal (z-score),[19],0.373
same,glycan array binding signal (z-score),[20],0.615
same,glycan array binding signal (z-score),[21],-0.324
same,glycan array binding signal (z-score),[22],0.648
same,glycan array binding signal (z-score),[23],0.368
same,glycan array binding signal (z-score),[24],-0.408
same,glycan array binding signal (z-score),[25],-0.326
same,glycan array binding signal (z-score),[26],-0.357
same,glycan array binding signal (z-score),Neu5Ac(a2-6)GalNAc,-0.464
same,glycan array binding signal (z-score),[27],-0.53
same,glycan array binding signal (z-score),[28],-0.25
same,glycan array binding signal (z-score),[29],-0.307
same,glycan array binding signal (z-score),[30],-0.175
